Data on six molecules can be found in patent publication US20260217864A1 (JANUX THERAPEUTICS, published 2026).

Where two headings read alike, the source gives them in different places. Bounds are passed on as bounds.

What all share (assay): cell-based or functional assay
Assay [1] addresses T1, six-transmembrane epithelial antigen of the prostate-1 (STEAP-1) (UniProt Q9UHE8 1-339, limits assumed).
Assay [2] has as its target T1, six-transmembrane epithelial antigen of …. The source holds these as a separate data set.
The target is the same in assay [3]. The source holds these as a separate data set.
The target is the same in assay [4]. This is another data set of the same source.
The target is the same in assay [5]. The source holds these as a separate data set.
For assay [6] the target is unchanged. This is another data set of the same source.

T1 sequence (Q9UHE8 whole entry): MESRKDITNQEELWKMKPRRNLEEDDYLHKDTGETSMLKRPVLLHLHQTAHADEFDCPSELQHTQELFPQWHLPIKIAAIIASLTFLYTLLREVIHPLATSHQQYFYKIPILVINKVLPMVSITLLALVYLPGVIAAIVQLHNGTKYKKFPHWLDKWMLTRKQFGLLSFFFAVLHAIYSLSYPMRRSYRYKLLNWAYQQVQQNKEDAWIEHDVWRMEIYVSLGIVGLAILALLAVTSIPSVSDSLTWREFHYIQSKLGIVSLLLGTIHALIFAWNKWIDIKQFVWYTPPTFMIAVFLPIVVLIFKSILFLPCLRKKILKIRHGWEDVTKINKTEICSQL

B1: TCE-25 (bispecific antibody)
light: DIQMTQSPSSLSASVGDRVTITCKSSQSLLYRSNQKNYLAWYQQKPGKAPKLLIYWASTRESGVPSRFSGSGSGTDFTLTISSLQPEDFATYYCQQYYNYPRTFGQGTKVEIKRTVAAPSVFIFPPSDEQLKSGTASVVCLLNNFYPREAKVQWKVDNALQSGNSQESVTEQDSKDSTYSLSSTLTLSKADYEKHKVYACEVTHQGLSSPVTKSFNRGEC
heavy: not shown
With B1, in assay [1], the “Cell line cytotoxicity EC50 (pM), 22RV1” value amounted to 1990 pM; the “Cell line cytotoxicity EC50 (pM), A673” value is 116 pM; the “Cell line cytotoxicity EC50 (pM), C4-2B” value amounted to 1200 pM; the “Cell line cytotoxicity EC50 (pM), IM-95” value turned out to be 49.5 pM. Besides, in assay [1], the “Cell line cytotoxicity EC50 (pM), LNCaP” value is 320 pM; the “Cell line cytotoxicity EC50 (pM), OE33” value worked out at 655 pM; the “Cell line cytotoxicity EC50 (pM), VCaP” value worked out at 2280 pM.

B2: TCE-70 (bispecific antibody)
light: DIQMTQSPSSLSASVGDRVTITCKSSQSLLYRSNQKNYLAWYQQKPGKAPKLLIYWASTRESGVPSRFSGSGSGTDFTLTISSLQPEDFATYYCQQYYNYPRTFGQGTKVEIKRTVAAPSVFIFPPSDEQLKSGTASVVCLLNNFYPREAKVQWKVDNALQSGNSQESVTEQDSKDSTYSLSSTLTLSKADYEKHKVYACEVTHQGLSSPVTKSFNRGEC
chain: not shown
heavy: not shown
With B2, in assay [2], the “Cell line cytotoxicity EC50 (pM), 22RV1” value stood at 916 pM; the “Cell line cytotoxicity EC50 (pM), IM-95” value stood at 31.8 pM; the “Cell line cytotoxicity EC50 (pM), LNCaP” value was 231 pM.

B3: TCE-57 (bispecific antibody)
light: DIQMTQSPSSLSASVGDRVTITCKSSQSLLYRSNQKNYLAWYQQKPGKAPKLLIYWASTRESGVPSRFSGSGSGTDFTLTISSLQPEDFATYYCQQYYNYPRTFGQGTKVEIKRTVAAPSVFIFPPSDEQLKSGTASVVCLLNNFYPREAKVQWKVDNALQSGNSQESVTEQDSKDSTYSLSSTLTLSKADYEKHKVYACEVTHQGLSSPVTKSFNRGEC
heavy: not shown
For B3, the “EC50/pM, LNCaP tumor cell killing” value in assay [3] is 45 pM. Also, in assay [2], the “Cell line cytotoxicity EC50 (pM), 22RV1” value was 295 pM and the “Cell line cytotoxicity EC50 (pM), LNCaP” value was 45.2 pM.

B4: TCE-53 (bispecific antibody)
light: DIQMTQSPSSLSASVGDRVTITCKSSQSLLYRSNQKNYLAWYQQKPGKAPKLLIYWASTRESGVPSRFSGSGSGTDFTLTISSLQPEDFATYYCQQYYNYPRTFGQGTKVEIKRTVAAPSVFIFPPSDEQLKSGTASVVCLLNNFYPREAKVQWKVDNALQSGNSQESVTEQDSKDSTYSLSSTLTLSKADYEKHKVYACEVTHQGLSSPVTKSFNRGEC
heavy: not shown
On to B4, for which the “EC50/pM, LNCaP tumor cell killing” value in assay [3] amounted to 1010 pM. Moreover, in assay [2], the “Cell line cytotoxicity EC50 (pM), LNCaP” value was 1010 pM.

B5: TCE-3 (bispecific antibody)
light: DIVMTQSPDSLAVSLGERATINCKSSQSLLYRSNQKNYLAWYQQKPGQPPKLLIYWASTRESGVPDRFSGSGSGTDFTLTISSLQAEDVAVYYCQQYYNYPRTFGQGTKVEIKRTVAAPSVFIFPPSDEQLKSGTASVVCLLNNFYPREAKVQWKVDNALQSGNSQESVTEQDSKDSTYSLSSTLTLSKADYEKHKVYACEVTHQGLSSPVTKSFNRGEC
heavy: not shown
For B5, in assay [4], the “IC50 (pM), VCaP tumor cell killing in the presence of CD8+ T cells” value was > 10000 pM. Further, in assay [2], the “Cell line cytotoxicity EC50 (pM), 22RV1” value is > 10000 pM; the “Cell line cytotoxicity EC50 (pM), IM-95” value is 639 pM; the “Cell line cytotoxicity EC50 (pM), LNCaP” value was determined as 1340 pM; the “Cell line cytotoxicity EC50 (pM), VCaP” value is > 10000 pM. Moreover, the “IC50 (pM), LNCaP tumor cell killing in the presence of CD8+ T cells” value in assay [5] turned out to be 1670 pM. The “IC50 (pM), 22Rv1 tumor cell killing in the presence of CD8+ T cells” value in assay [6] was > 10000 pM.

B6: TCE-27 (bispecific antibody)
light: DIVMTQSPDSLAVSLGERATINCKSSQSLLYRSNQKNYLAWYQQKPGQPPKLLIYWASTRESGVPDRFSGSGSGTDFTLTISSLQAEDVAVYYCQQYYNYPRTFGQGTKVEIKRTVAAPSVFIFPPSDEQLKSGTASVVCLLNNFYPREAKVQWKVDNALQSGNSQESVTEQDSKDSTYSLSSTLTLSKADYEKHKVYACEVTHQGLSSPVTKSFNRGEC
heavy: not shown
On to B6, for which, in assay [1], the “Cell line cytotoxicity EC50 (pM), IM-95” value was 82.7 pM and the “Cell line cytotoxicity EC50 (pM), LNCaP” value is 752 pM.
